# Out of some 310,000 compounds screened, about 14,000 (4.5%) showed an effect of 50% or more. The effect is printed as a negative number. The list shows a part of the results.
# Molecular target: human ether-à-go-go-related gene (hERG) potassium channel (human, UniProt Q12809)
# Assay: primary screen, population patch clamp on CHO cells stably expressing hERG
# 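Note: peak tail current of the secondary pulse compared with the same well before compound.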
# Sequence of human ether-à-go-go-related gene (hERG) potassium channel (Q12809 whole entry, looked up): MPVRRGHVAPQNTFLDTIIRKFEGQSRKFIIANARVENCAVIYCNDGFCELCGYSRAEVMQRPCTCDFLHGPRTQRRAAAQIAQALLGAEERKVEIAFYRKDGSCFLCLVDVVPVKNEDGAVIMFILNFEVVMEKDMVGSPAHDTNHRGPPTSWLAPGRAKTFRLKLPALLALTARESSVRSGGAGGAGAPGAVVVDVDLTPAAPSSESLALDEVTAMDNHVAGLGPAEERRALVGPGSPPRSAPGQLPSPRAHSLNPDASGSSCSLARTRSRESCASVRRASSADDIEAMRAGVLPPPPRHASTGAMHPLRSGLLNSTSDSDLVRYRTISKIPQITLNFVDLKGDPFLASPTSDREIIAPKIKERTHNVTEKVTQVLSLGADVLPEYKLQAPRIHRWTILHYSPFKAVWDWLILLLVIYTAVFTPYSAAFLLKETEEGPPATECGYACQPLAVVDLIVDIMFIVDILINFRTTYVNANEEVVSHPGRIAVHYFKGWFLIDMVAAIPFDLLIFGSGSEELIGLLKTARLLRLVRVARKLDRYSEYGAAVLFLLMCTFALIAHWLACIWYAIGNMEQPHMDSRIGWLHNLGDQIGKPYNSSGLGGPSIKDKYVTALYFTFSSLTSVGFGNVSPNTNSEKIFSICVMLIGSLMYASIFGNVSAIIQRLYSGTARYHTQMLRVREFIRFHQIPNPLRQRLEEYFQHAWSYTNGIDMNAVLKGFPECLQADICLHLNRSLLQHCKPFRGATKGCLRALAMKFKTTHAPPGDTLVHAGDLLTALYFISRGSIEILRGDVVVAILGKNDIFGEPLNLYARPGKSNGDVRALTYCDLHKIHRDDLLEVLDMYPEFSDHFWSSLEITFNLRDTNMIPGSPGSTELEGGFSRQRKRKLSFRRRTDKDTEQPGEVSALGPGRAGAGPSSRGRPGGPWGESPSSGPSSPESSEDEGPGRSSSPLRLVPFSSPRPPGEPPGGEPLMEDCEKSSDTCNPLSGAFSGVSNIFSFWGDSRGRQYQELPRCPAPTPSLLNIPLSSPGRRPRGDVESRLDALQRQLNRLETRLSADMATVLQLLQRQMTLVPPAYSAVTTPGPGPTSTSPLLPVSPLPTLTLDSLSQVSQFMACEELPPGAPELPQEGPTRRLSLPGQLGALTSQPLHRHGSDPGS
row,SMILES,"hERG current change (%, negative = inhibition) at 10uM"
1,O=C(O)c1ccc2c(c1)SC1=NS(=O)(=O)CCN12,8.48%
2,O=c1[nH]c(-c2ccco2)nc2sc3c(c12)CCCC3,7.64%
3,COCCCNCCCCOc1ccc(Br)cc1Cl.O=C(O)C(=O)O,-67.1%
4,Cc1ccc(NCc2nnc(SCC(=O)OC3CCCCC3)o2)c(C)c1,8.15%
5,CN(C)/C=C(/C(=O)c1ccc(Cl)cc1Cl)S(=O)(=O)c1ccccc1,8.62%
6,Brc1cccc(CN2CCCCCC2)c1,2.02%
7,COCCN(Cc1ccccc1)C(=O)c1cc(-c2ccc(OC)c(OC)c2)nc2ccccc12,-12.4%
8,Cc1nnc(SC(C)C(=O)Nc2ccc3c(c2)OCCO3)s1 (stereo not shown),8.52%
9,CC(C)NC(=O)c1onc(CSc2cccc(F)c2)c1C(=O)O,6.47%
10,COC(=O)c1ccc(NC(=O)COc2ccc([N+](=O)[O-])cc2)cc1,12.4%
11,CCOC(=O)c1c(C)[nH]c(C(=O)OCC(=O)N(C)CC(=O)Nc2ccccc2Cl)c1C,-2.23%
12,O=C(CN1CCCCC1)Nc1cccc(-n2cnnn2)c1,0.45%
13,CC(C)(C)SCCNC(=O)c1cccc([N+](=O)[O-])c1,10.5%
14,Cc1ccc(C2=CC(=O)CC(C)(C)C2)cc1,2.6%
15,Cc1ccc(NC(=O)CNC(=O)c2ccc(C)o2)cc1,9.14%
16,COc1ccc(Cl)cc1NC(=O)CN1CCC(n2nnc3ccccc32)CC1,-10.4%
17,COc1ccc(CNC(=O)Cn2cccc2C(=O)c2ccccc2C)cc1,16%
18,CC(=NCCc1ccccc1)C1=C(O)CSC1=O,-2.49%
19,O/N=C/c1ccc(OCC(O)COc2ccc(/C=N/O)cc2)cc1,-41.2%
20,COc1ccc(N2CCN(C(CNS(C)(=O)=O)c3ccco3)CC2)cc1 (stereo not shown),-7.42%
21,O=Cc1cccc(Oc2ncccn2)c1,8.87%
22,O=C(Nc1ccn(Cc2ccccc2)n1)c1ccc2c(c1)OCO2,-3.08%
23,Nc1c(C(=O)NCCc2ccccc2)sc2nc(N3CCOCC3)c3c(c12)CCCC3,9.32%

row,SMILES,"hERG current change (%, negative = inhibition) at 10uM"
1,Cc1ccccc1NS(=O)(=O)c1cccc2nsnc12,19.4%
2,O=C1c2ccccc2C(=O)N1CNc1ccccc1,18.7%
3,Cc1sc2ncnc(N[C@@H](Cc3ccccc3)C(=O)O)c2c1C,14%
4,Clc1ccccc1Cn1nc(-c2ccccc2)nc1-c1ccccc1,-0.912%
5,NC(=O)c1ccc(N=C2C(=O)Nc3ccc([N+](=O)[O-])cc32)cc1,18.6%
6,Cc1ccccc1CSCCNC(=O)Nc1ccccc1,1.64%
7,CCCNC(=O)N1C2CCC1CC(O)(c1cccnc1)C2 (stereo not shown),-1.82%
8,COc1ccc(Cl)cc1NC(=O)c1ccc2c(SCC(=O)O)c3c(nc2c1)CCCC3,34.5%
9,Cc1cc(NC(=O)CSc2nc(-c3cccnc3)ccc2C#N)no1,-2.99%
10,O=C(O)c1ccc(-c2noc(-c3ccc(F)cc3)n2)cc1,14.3%
11,O=C(NN1C(=O)c2ccccc2C1=O)C1C2CCCCC21 (stereo not shown),7.41%
12,CC(=O)Nc1ccc(SCC(=O)O)cc1,12.7%
13,COc1ccc(-n2cc(-c3ccc(OC)c(OC)c3)[nH]c2=S)cc1,6.1%
14,COc1ccc2c(C)nc(N/C(N)=N/S(=O)(=O)c3ccc(C)cc3)nc2c1,3.1%
15,O=C(NCC1CCCO1)C(=O)c1c[nH]c2ccccc12 (stereo not shown),0.898%
16,N=C1C(c2nc3ccccc3s2)=C(O)CN1NC(=O)c1ccccc1[N+](=O)[O-],13.3%
17,COc1ccccc1NC(=O)N1CCCC1C(=O)Nc1nnc(C(C)C)s1 (stereo not shown),-7.02%
18,CCCCc1c(O)nc(SCC(=O)c2ccccc2)n(-c2ccccc2OC)c1=O,9.63%
19,COc1ccc(NS(=O)(=O)c2cc(NC(=O)c3ccc(=O)[nH]n3)ccc2N2CCOCC2)cc1,-23.2%
20,Cc1ccc(-c2ccc(=O)n(CC(=O)NCc3ccco3)n2)cc1,-10%
21,COc1ccc(C(=O)C2CCCN(Cc3nc4ccccc4nc3C)C2)cc1OC (stereo not shown),-84.9%
22,O=C(Nc1ccccc1)C1=C(O)CC(c2ccco2)CC1=Nc1ccccc1 (stereo not shown),8.82%
23,COCCn1c(Cc2ccccc2)nnc1SCC(=O)NC(C)C,-2.94%

row,SMILES,"hERG current change (%, negative = inhibition) at 10uM"
1,CC(c1ccco1)N(C(=O)c1ccccc1F)c1ccccn1 (stereo not shown),10.1%
2,CS(=O)(=O)N(CC(=O)N1CCCCCC1)c1cc(Cl)ccc1Cl,-2.13%
3,COc1ccc(C(=O)c2cnc[nH]2)cc1,13.7%
4,COC(=O)c1ccc(Cl)cc1N(Cc1c(F)cccc1Cl)S(C)(=O)=O,-19.8%
5,CCOC(=O)c1sc(NS(=O)(=O)c2ccc(C)cc2)nc1C,-2.14%
6,COc1cc2c(cc1OC)C(C)N(C(=O)C(NC(=O)c1ccccc1)C(C)C)CC2 (stereo not shown),7.1%
7,CN(Cc1ccccc1)C1CC(=O)N(c2ccc(C(=O)O)cc2)C1=O (stereo not shown),3.13%
8,CCOc1ccc(C2C(C(=O)c3cccs3)=C(O)C(=O)N2CCN2CCOCC2)cc1 (stereo not shown),-1.52%
9,Cc1cc(CNC(=O)[C@H](C)[C@@H]2C[C@@]2(C)[C@@H](NC(=O)OCc2ccccc2)c2ccccc2)nn1C,-22.5%
10,O=C(O)c1ccc(N/N=C/c2cc(Br)cs2)cc1,24.3%
11,Cc1nc(=S)n(-c2ccccc2)[nH]1,22.9%
12,CCOC(=O)c1c(NC(=O)C2CCCO2)sc(C)c1C (stereo not shown),4.6%
13,C[C@H](NC(=O)c1cc2cc(Cl)ccc2n1C)C(=O)N[C@@H](Cc1ccccc1)C(=O)O,8.99%
14,CCCc1nn2c(=O)cc(O)nc2s1,14.2%
15,CNC(=O)c1cccn1-c1ccsc1C(=O)OC,7.33%
16,COc1cccc(N2CCN(C(=O)c3cc(C)oc3C)CC2)c1,6.8%
17,Cc1ccc(N2C(=O)/C(=C\c3ccc(C(C)C)cc3)N=C2SC2CCOC2=O)cc1 (stereo not shown),14.2%
18,CCn1nc(NC(=O)c2ccccc2)c2cc3cccc(C)c3nc21,11.9%
19,COc1ccc(OC)c(NC(=O)c2ccc(CSc3nnc(C)s3)cc2)c1,3.32%
20,O=C(c1ccccc1[N+](=O)[O-])N1CCc2ccccc2C1,9.51%
21,O=c1c2ccccc2c(C=Nc2ccccc2O)c(O)n1-c1nccs1,3.45%
22,O=C(COc1ccccc1)OCc1cc(-c2ccco2)on1,5.99%
23,O=C(Cc1ccccc1)N1CCN(c2ccccc2F)CC1,18.1%

row,SMILES,"hERG current change (%, negative = inhibition) at 10uM"
1,C=CCOC(=O)C1=C(C)OC(N)=C(C#N)[C@@]12C(=O)N(CC(N)=O)c1ccccc12,-9.98%
2,O=[N+]([O-])c1ccc(Nc2nc(Cl)nc(NCCO)n2)cc1,3.63%
3,CCn1nc(C)c(Br)c1-c1nc(CS(=O)(=O)c2ccsc2)no1,-22.6%
4,O=C(NCc1cccnc1)c1cc(-c2ccc(Cl)cc2)oc1C(F)(F)F,-25%
5,Cc1nc2cc(NC(=O)CCS(=O)(=O)c3ccccc3)ccc2s1,5.59%
6,CCOc1cc(/C=N/Nc2ncnc(Cl)c2N)ccc1O,2.48%
7,Cc1ccc(-n2ncc(C#N)c2N)cc1,-14.2%
8,CN(C(=O)COC(=O)CN1C(=O)C2CC=CCC2C1=O)c1ccccc1 (stereo not shown),11.4%
9,CCN(CC)c1ccc(/C=N/NC(=O)CNC(=O)C2COc3ccccc3O2)c(O)c1 (stereo not shown),0.388%
10,COC(=O)c1cc2c(N)c(C(=O)c3ccc(Cl)cc3)sc2nc1C(OC)OC,-69.6%
11,O=[N+]([O-])c1cc(Cl)c(Cl)c(Cl)c1Cl,23.9%
12,COc1cc([N+](=O)[O-])c(C(=O)N2CCOCC2)c([N+](=O)[O-])c1,7.66%
13,O=C(NCc1ccncc1)C(=O)NCC1OCCCN1S(=O)(=O)c1cc(F)ccc1F (stereo not shown),4.86%
14,COC(=O)c1nn(-c2cccc(C)c2)c2nnc(Cc3ccc(C)cc3)c(=O)n12,7.2%
15,CC1CCN(C(=O)CSc2nc3ccccc3[nH]2)CC1,-6.38%
16,Cc1ccc(OCC(=O)Nc2ccc([N+](=O)[O-])cc2)cc1,5.9%
17,O=C1CC(C(=O)Nc2ccc(F)cc2)S/C(=N\N=C\c2ccco2)N1 (stereo not shown),2.54%
18,O=C(CN1CCN(S(=O)(=O)c2ccc(Cl)cc2)CC1)Nc1ccc2c(c1)CCC2,-3.08%
19,CC1CN(c2ccc(Cl)nn2)CC(C)O1 (stereo not shown),24.7%
20,Cc1cc(NC(=O)CCC(=O)N(CC(=O)NC2CCCC2)c2ccc3c(c2)OCCO3)no1,6.74%
21,COC(=O)C(c1ccccc1)C1(O)CC(C)N(C)CC1C (stereo not shown),1.96%
22,Cc1cc(C(=O)CCC(=O)Nc2ccc(S(N)(=O)=O)cc2)c(C)s1,9.72%
